The chains are these.
B1: LINE1-full (parent)
chain: UACGUAGGUGGUUUUCCCCUGAUAGUGCUAAGGGGGCCUGGAAGUUUGGACUGGGCAGAGCUCAACACAGCGUGGCAAAGUGGCUGUGGCUAGACUGCCUCUCUGGAUUCCUCGUCACUCAGCAGGGCAUCUCUGAGAGAAAUGCC

The source gives no read counts; variants with many changes may rest on few reads.

In this data set the parent is B1. Put plainly: self-cleavage, relative activity (ratio to wild type); higher = more cleavage; in vitro, sequencing; the parent is a self-cleaving ribozyme.
For UACGUAGGUGGUUUUCCCCUGAUAGUGCUAAGGGGGCCUGGAAGUUUGGACUGGGCAGAGCUCAACACAGCGUGGCGAAGUGGUUGUGGCUAGACUGCCUCCCUGGAUUCCUCGUCACUCAGCAGGGCAUCUCUGAGAGAAAUGCC, the self-cleavage is 0.21.

On to UACGUAGGUGGUUUUCCCCUGAUAGUGCUAAGGGGGCCUGGAAGUUUGGACUGGGCAGAGCUCAACACAGCGUGGCCAAGUGGCCGUGGCUAGACUGCCUCUCUGGAUUCCUCGUCGCUCAGCAGGGCAUCUCUGAGAGAAAUGCC, for which the self-cleavage worked out at 0.

As to UACGUAGGUGGUUUUCCCCUGAUAGUGCUAAGGGGGCCUGGAAGUUUGGACUGGGCAGAGCUCAACACAGCGUGGUAAAGUGGCUGUGGCUAGACUGCCUCUCUGGAUUCCUCGACACUCAGCAGGGCAUCUCCGAGAGAAAUGCC, the self-cleavage came to 0.98.

For the variant UACGUAGGUGGUUUUCCCCUGAUAGUGCUAAGGGGGCCUGGAAGUUUGGACUGGGCAGAGCUCAACACAGCGUGGCGAAGUGGCUGUGGCUAGACUGCUUCUCUGGAUUCCUCGUCACUCAGCAGGGCAUCUCUGAGAGAAGUGCC, the self-cleavage is 0.92.

Regarding UACGUAGGUGGUUUUCCCCUGAUAGUGCUAAGGGGGCCUGGAAGUUUGGACUGGGCAGAGCUCAACACAGCGUGGAAAAGUGGCUGUGGUUAGACUGCCUCUCAGGAUUCCUCGUCACUCAGCAGGGCAUCUCUGAGAGGAAUGCC, the self-cleavage came out at 0.06.

UACGUAGGUGGUUUUCCCCUGAUAGUGCUAAGGGGGCCUGGAAGUUUGGACUGGGCAGAGCUCAACACAGCGUGGCGAAGUGGCUGUGGCUAGACUGCCUCUCUGGAUUCCUCGUCGCUCAGCAGGGCAUCUCUGAGAGAAGUGCC: the self-cleavage was 0.

Turning to UACGUAGGUGGUUUUCCCCUGAUAGUGCUAAGGGGGCCUGGAAGUUUGGACUGGGCAGAGCUCAACACAGCGUGGCGAUGUGGCUGUGGCUAGACCGCCUCUCUGGAUUCCUCGUCACUCAACAGGGCAUCUCUGAGAGAAAUGCC, the self-cleavage worked out at 0.

With UACGUAGGUGGUUUUCCCCUGAUAGUGCUAAGGGGGCCUGGAAGUUUGGACUGGGCAGAGCUCAACACAGCGUGGCGAAGUGGCUGUGGCUUGACUGCCUCUCUGGGUUCCUCGUCACUCAGCAGGGCAUCUCUGAGAGAAAUGCC, the self-cleavage is 2.1.

As for UACGUAGGUGGUUUUCCCCUGAUAGUGCUAAGGGGGCCUGGAAGUUUGGACUGGGCAGAGCUCAACACAGCGUGGCGAAGUGGCUGUGGCUAGACUGCCUCUCUGGAUUCCUCGUCACUCGGCAGGGCAUCUCUGAGAGACAUGCC, the self-cleavage is 1.08.

Turning to UACGUAGGUGGUUUUCCCCUGAUAGUGCUAAGGGGGCCUGGAAGUUUGGACUGGGCAGAGCUCAACACAGCGUGGCGAAGUGGCUGUGGCCAGACUGCCUCUCUGGAUUCCUCGUCACUCAGCAGGGCGUCUCUGAGAGAAAUGCC, the self-cleavage was 1.41.

As to UACGUAGGUGGUUUUCCCCUGAUAGUGCUAAGGGGGCCUGGAAGUUUGGACUGGGCAGAGCUCAACACAGCGUGGCGAAGUGGCUGUGGCUAGACUGCCUCUCUGGAUUCCUCGUCACUCAGCAGGGCAUCUCUGAGAGAAGCGCC, the self-cleavage is 0.84.

Turning to UACGUAGGUGGUUUUCCCCUGAUAGUGCUAAGGGGGCCUGGAAGUUUGGACUGGGCAGAGCUCAACACAGCGUGGCGGAGUGGCUAUGGCUAGACGGCCUCUCUGGAUUCCUCGUCACUCAGCAGGGCAUCUCUGAGAGAAAUGCC, the self-cleavage was 0.09.

On to UACGUAGGUGGUUUUCCCCUGAUAGUGCUAAGGGGGCCUGGAAGUUUGGACUGGGCAGAGCUCAACACAGCGUGGCGAAGUGGCAGUGGCUAGACUGCCUCUCUGGAUUCCUCGUCACUCAGCAGGGCAUCUCUGAGAGAAGUGCC, for which the self-cleavage was 0.11.

For the variant UACGUAGGUGGUUUUCCCCUGAUAGUGCUAAGGGGGCCUGGAAGUUUGGACUGGGCAGAGCUCAACACAGCGUGGCGAAGUGGCUGUGGCUAGGCUGCCUCUCUGGAUUCCUCGUCACACAGCAGGGCAUCUCUGAGAGAAAUGCC, the self-cleavage amounted to 0.26.

Take UACGUAGGUGGUUUUCCCCUGAUAGUGCUAAGGGGGCCUGGAAGUUUGGACUGGGCAGAGCUCAACACAGCGUGGCGAAGUGGUUGUGGCUAGACUGCCUCUCUGGACUCCUCGUCACUCAGCAGGGCAUCUCCGAGAGAAACGCC: the self-cleavage turned out to be 0.41.

Regarding UACGUAGGUGGUUUUCCCCUGAUAGUGCUAAGGGGGCCUGGAAGUUUGGACUGGGCAGAGCUCAACACAGCGUGGCGGAAUGGCUGUGGCUAGACUGCCUCUCUGGAUUCCUCGUCACUCAGCAGGGCAUCUCUGAGGGAAAAGCC, the self-cleavage is 2.04.

As to UACGUAGGUGGUUUUCCCCUGAUAGUGCUAAGGGGGCCUGGAAGUUUGGACUGGGCAGAGCUCAACACAGCGUGGCGAAGUGGCUGUGGCUAGACUGCCUCUCUGGGUCCCUCGUCACUCAGCAGGGCAUCUCUGAGAGAAAUGCC, the self-cleavage turned out to be 1.84.

For the variant UACGUAGGUGGUUUUCCCCUGAUAGUGCUAAGGGGGCCUGGAAGUUUGGACUGGGCAGAGCUCAACACAGCGUGGCGAGGUGGCUGUGGCUAGACUGCCUCUCUGGAUUCCUCGUCACACAGCAGGGCAUCUCUGAGAGAAAUGCC, the self-cleavage is 0.56.

Turning to UACGUAGGUGGUUUUCCCCUGAUAGUGCUAAGGGGGCCUGGAAGUUUGGACUGGGCAGAGCUCAACACAGCGUGGUAAAGUGGCUGUGGCUAGACUGCCUCUCUGGAUUCCUCGUCACACAGCAGGGCAUCUCUGAGAGAAGUGCC, the self-cleavage worked out at 1.49.

On to UACGUAGGUGGUUUUCCCCUGAUAGUGCUAAGGGGGCCUGGAAGUUUGGACUGGGCAGAGCUCAACACAGCGUGGCGAAGUGGCUGUGGCCAGACUGCCCCUCUGGAUUCCUCGUCACUCAGCAGGGCAUCUCUGAGAGAAAUGCC, for which the self-cleavage is 1.02.

Consider UACGUAGGUGGUUUUCCCCUGAUAGUGCUAAGGGGGCCUGGAAGUUUGGACUGGGCAGAGCUCAACACAGCGUGGCCAAGUGGCUGUGGCUAGACUGCCUCUCUGGAUUCCUCGUCACUCAGCGGGGCACCUCUGAGAGAAAUGCC, for which the self-cleavage came to 0.48.

Take UACGUAGGUGGUUUUCCCCUGAUAGUGCUAAGGGGGCCUGGAAGUUUGGACUGGGCAGAGCUCAACACAGCGUGGUAAAGUGGCUGUGGCUAGACUGCCUCUCUGGAUUCCUCGCCACUCAGCGGGGCAUCUCUGAGAGAAAUGCC: the self-cleavage turned out to be 1.94.

For the variant UACGUAGGUGGUUUUCCCCUGAUAGUGCUAAGGGGGCCUGGAAGUUUGGACUGGGCAGAGCUCAACACAGCGUGGCGAAGUGGCUGUGGCUUGACUGCCACUCCGGAUUCCUCGUCACUCAGCAGGGCAUCUCUGAGAGAAAUGCC, the self-cleavage came out at 0.33.

As for UACGUAGGUGGUUUUCCCCUGAUAGUGCUAAGGGGGCCUGGAAGUUUGGACUGGGCAGAGCUCAACACAGCGUGGCGAAGUGGCUGUGGCUAGACUGCCUCUCUGGAUUCCUCGUCACUCAGCAGAGCAACACUGAGAGAAAUGCC, the self-cleavage amounted to 1.98.

As to UACGUAGGUGGUUUUCCCCUGAUAGUGCUAAGGGGGCCUGGAAGUUUGGACUGGGCAGAGCUCAACACAGCGUGGGAAAGUGGCUGUGGCUAGACUGCCUCUCUGGAUUCCUCGUCACUCAGCAGGGCAUCUCUGGGAGAGAUGCC, the self-cleavage stood at 2.14.

With UACGUAGGUGGUUUUCCCCUGAUAGUGCUAAGGGGGCCUGGAAGUUUGGACUGGGCAGAGCUCAACACAGCGUGGCCAGGUGGCUGUGGCUAGACUGCCUCUCUGGAUUCCUCGUCACUCAGCAGGGCAUCUCUGAGAGAGAUGCC, the self-cleavage is 0.61.

Take UACGUAGGUGGUUUUCCCCUGAUAGUGCUAAGGGGGCCUGGAAGUUUGGACUGGGCAGAGCUCAACACAGCGUGGCGAAGUGGUUGUGGCUAGACUGCCUCUCUGGAUUCCUCGUCACUCAGCAGGGCAUCUCUGAGAGAAGUGCC: the self-cleavage was found to be 0.16.

In the case of UACGUAGGUGGUUUUCCCCUGAUAGUGCUAAGGGGGCCUGGAAGUUUGGACUGGGCAGAGCUCAACACAGCGUGGCGAAGUGGCCGUGGCUAGACUGCCUCUCUGGAUUCCUCGUCACUCAGCAGGGCACCUCUGAGAGAAAUGCC, the self-cleavage was 0.

Regarding UACGUAGGUGGUUUUCCCCUGAUAGUGCUAAGGGGGCCUGGAAGUUUGGACUGGGCAGAGCUCAACACAGCGUGGUAAAGUGGCUGUGGCUAGACUGCCUCUCUGGAUUCUUCGUCACUCAGCAGGGCAUCUCUGAGAGGAAUGCC, the self-cleavage is 2.68.

As for UACGUAGGUGGUUUUCCCCUGAUAGUGCUAAGGGGGCCUGGAAGUUUGGACUGGGCAGAGCUCAACACAGCGUGGCGAAGUGGCUGUGGUUAGACUGCCUCUCUGGAUUCCUCGUCACUCAGCAGGGCCUCUCUGAGAGAAAUGCC, the self-cleavage came out at 0.09.

With UACGUAGGUGGUUUUCCCCUGAUAGUGCUAAGGGGGCCUGGAAGUUUGGACUGGGCAGAGCUCAACACAGCGUGGCGAAGUGGCCGUGGCUAGACUGCCUCUCUGGAUUCCUCGUCACUCAGCAGGGCAUCUCUGAGGGAAAUGCC, the self-cleavage amounted to 0.09.

With UACGUAGGUGGUUUUCCCCUGAUAGUGCUAAGGGGGCCUGGAAGUUUGGACUGGGCAGAGCUCAACACAGCGUGGCGAAGUGGCUGUGGCUAGACUGCCUCUCUGGAUUCCUCGUCGCUCAGCAGGGCAUCUCUGAGAGGAAAGCC, the self-cleavage is 2.76.

For the variant UACGUAGGUGGUUUUCCCCUGAUAGUGCUAAGGGGGCCUGGAAGUUUGGACUGGGCAGAGCUCAACACAGCGUGGCGAAGUGGCUGUGACUGGACUGCAUCUCCGGAUUCCUCGUCACUCAGCAGGGCAUCUCUGAGAGAAAUGCC, the self-cleavage was 0.07.

In the case of UACGUAGGUGGUUUUCCCCUGAUAGUGCUAAGGGGGCCUGGAAGUUUGGACUGGGCAGAGCUCAACACAGCGUGGCGAAGUGGCUGAGGCUAGACUGCCUCUCUGGAUUCCUCGUCGCUCAGCAGGGCAUCUCUGAGAGAAAUGCC, the self-cleavage turned out to be 0.06.

Regarding UACGUAGGUGGUUUUCCCCUGAUAGUGCUAAGGGGGCCUGGAAGUUUGGACUGGGCAGAGCUCAACACAGCGUGGCGAAGUGGCUGUGGCUAGGCUGCCUCUCUGGAUUCCCCGUCACUCAGCAGGACAUCUCUGAGAGAAAUGCC, the self-cleavage amounted to 0.23.

In the case of UACGUAGGUGGUUUUCCCCUGAUAGUGCUAAGGGGGCCUGGAAGUUUGGACUGGGCAGAGCUCAACACAGCGUGGCGGAGUGGCUGUGGCUAGACUGCCUCUCUGGAUUCCUCGUCACUCAGCAGGGCAUCUCUGAGAGAAGUGCC, the self-cleavage stood at 2.3.

As for UACGUAGGUGGUUUUCCCCUGAUAGUGCUAAGGGGGCCUGGAAGUUUGGACUGGGCAGAGCUCAACACAGCGUGGCGAAGUGGCGGUGGCUAGACUGCCCCUCUGGAUUCCUCGUCACUCAGCAGGGCAUCUCUGAGAGAAAAGCC, the self-cleavage was determined as 1.08.

Turning to UACGUAGGUGGUUUUCCCCUGAUAGUGCUAAGGGGGCCUGGAAGUUUGGACUGGGCAGAGCUCAACACAGCGUGGUAAAGUGGCUGUGGCUAGACUGCCUCUCUGGAUCCCUCGUCACUCAGCAGGGCUUCUCUGAGAGAAAUGCC, the self-cleavage is 2.01.

UACGUAGGUGGUUUUCCCCUGAUAGUGCUAAGGGGGCCUGGAAGUUUGGACUGGGCAGAGCUCAACACAGCGUGGCGAAGUGGCUGUGGCUAGACUGCCCCUCUGGAUUCCUUGUCACUCAGCAGGGCAUCUCUGAGAGAAAUGCC: the self-cleavage was 2.52.

(Values after the RNAGym collection of RNA variant scans (doi:10.7554/elife.90254).)
